From the BET-seq Pho4 binding data (Le et al. 2018) come the findings set out here.

The other results are listed elsewhere or left out. The energies were worked out here from pooled read counts, against the library average; single values are noisy.

This assay concerns the target T1, Pho4 (S. cerevisiae) (UniProt P07270).
T1 sequence: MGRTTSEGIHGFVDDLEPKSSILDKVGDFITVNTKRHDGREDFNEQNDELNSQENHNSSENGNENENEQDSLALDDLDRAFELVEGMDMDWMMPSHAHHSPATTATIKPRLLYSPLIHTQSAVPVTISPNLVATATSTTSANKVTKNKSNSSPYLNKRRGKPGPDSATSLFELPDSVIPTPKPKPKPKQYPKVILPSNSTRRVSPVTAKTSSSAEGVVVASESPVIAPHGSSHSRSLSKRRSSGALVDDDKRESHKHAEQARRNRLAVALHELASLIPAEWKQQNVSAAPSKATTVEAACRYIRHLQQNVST
The assay can be described thus: relative binding free energy (BET-seq); higher = weaker binding. The settings on record: reference: library average.
For the sequence TTGTCCACGTGTGGCT, the “relative binding free energy” value was -0.01 kcal/mol.

Turning to TCGCGCACGTGTGGGT, the “relative binding free energy” value was -0.04 kcal/mol.

In the case of GCTGTCACGTGATATT, the “relative binding free energy” value worked out at 0.3 kcal/mol.

Take GGTCTCACGTGCTGTT: the “relative binding free energy” value stood at 0.24 kcal/mol.

Regarding TATATCACGTGGAAGT, the “relative binding free energy” value amounted to 0.22 kcal/mol.

CGTGGCACGTGGGATG: the “relative binding free energy” value was -0.17 kcal/mol.

For TGTAGCACGTGAGGAT, the “relative binding free energy” value came out at 0.25 kcal/mol.

For the sequence CAGCGCACGTGGTAGG, the “relative binding free energy” value is -0.2 kcal/mol.

As to ATCGACACGTGTGGGT, the “relative binding free energy” value was 0.1 kcal/mol.

As for CAGGCCACGTGGTTGG, the “relative binding free energy” value was -0.21 kcal/mol.

For AGTCGCACGTGGGGAA, the “relative binding free energy” value was -0.15 kcal/mol.

As for TGGTGCACGTGGGTTT, the “relative binding free energy” value is -0.11 kcal/mol.

Turning to AGAGACACGTGATTGG, the “relative binding free energy” value was 0.13 kcal/mol.

Take GGGTCCACGTGGGGTA: the “relative binding free energy” value was -0.2 kcal/mol.

For ATAGGCACGTGTTCGA, the “relative binding free energy” value is -0.18 kcal/mol.

Take TCATTCACGTGTGGGA: the “relative binding free energy” value turned out to be 0.34 kcal/mol.

Consider ATAATCACGTGATTGG, for which the “relative binding free energy” value turned out to be 0.16 kcal/mol.

Turning to TGAAGCACGTGCGGGT, the “relative binding free energy” value is -0.15 kcal/mol.

Regarding GGGGTCACGTGCAAGT, the “relative binding free energy” value was found to be 0.14 kcal/mol.

TATGTCACGTGAGAAA: the “relative binding free energy” value is 0.21 kcal/mol.

AGAGACACGTGGAGTA: the “relative binding free energy” value turned out to be 0.11 kcal/mol.

In the case of AATGGCACGTGCGCGG, the “relative binding free energy” value is -0.32 kcal/mol.

On to AGGTACACGTGTGAGT, for which the “relative binding free energy” value was 0.17 kcal/mol.

AATGTCACGTGCTAGT: the “relative binding free energy” value was determined as 0.12 kcal/mol.

Regarding GGAATCACGTGTGTGC, the “relative binding free energy” value is 0.34 kcal/mol.

Take GGGTACACGTGTGCTG: the “relative binding free energy” value was determined as 0.08 kcal/mol.

Consider GAAGTCACGTGATGTA, for which the “relative binding free energy” value is 0.31 kcal/mol.

As for GAGAGCACGTGGGTCT, the “relative binding free energy” value is -0.14 kcal/mol.

With TTTTTCACGTGCGTTA, the “relative binding free energy” value amounted to 0.2 kcal/mol.

With AATGTCACGTGGTACA, the “relative binding free energy” value stood at 0.04 kcal/mol.

Take AAAAGCACGTGTGATG: the “relative binding free energy” value is 0.11 kcal/mol.

Take GGTTGCACGTGGGACT: the “relative binding free energy” value was determined as 0 kcal/mol.

For GCGTTCACGTGATGGT, the “relative binding free energy” value was 0.39 kcal/mol.

Consider ATGTTCACGTGGGGAG, for which the “relative binding free energy” value came out at 0.11 kcal/mol.

For AAGTTCACGTGTATCG, the “relative binding free energy” value is 0.14 kcal/mol.

With GGTGGCACGTGATCCG, the “relative binding free energy” value is 0.08 kcal/mol.

In the case of TTGTGCACGTGCATGT, the “relative binding free energy” value was -0.12 kcal/mol.

TTATACACGTGATGAT: the “relative binding free energy” value is 0.01 kcal/mol.

For CAGGGCACGTGATTGA, the “relative binding free energy” value came out at 0.04 kcal/mol.

Turning to GTGCGCACGTGAAGTG, the “relative binding free energy” value worked out at 0.21 kcal/mol.

For TTGTTCACGTGTGTTG, the “relative binding free energy” value amounted to 0.32 kcal/mol.

On to GATTTCACGTGGTCGG, for which the “relative binding free energy” value is 0.32 kcal/mol.

For AGCGACACGTGGGGTC, the “relative binding free energy” value was -0.09 kcal/mol.

TTTAGCACGTGCTGCT: the “relative binding free energy” value was -0.02 kcal/mol.

On to CCTGGCACGTGTGTTA, for which the “relative binding free energy” value turned out to be 0.05 kcal/mol.

As to CTATTCACGTGGTGCT, the “relative binding free energy” value was determined as 0.09 kcal/mol.

For the sequence ATCTTCACGTGCTTGG, the “relative binding free energy” value amounted to 0.32 kcal/mol.

On to TTGTCCACGTGTGTGC, for which the “relative binding free energy” value was 0.14 kcal/mol.

For GTTAGCACGTGCAGTC, the “relative binding free energy” value turned out to be 0.24 kcal/mol.

Regarding AGTCCCACGTGGTTTG, the “relative binding free energy” value was -0.05 kcal/mol.

With TTTGCCACGTGTTAAT, the “relative binding free energy” value was -0.14 kcal/mol.

TAAGTCACGTGATTGT: the “relative binding free energy” value was 0.09 kcal/mol.

In the case of CAGTGCACGTGAGCGT, the “relative binding free energy” value was 0.09 kcal/mol.

As for TATGTCACGTGCCGGT, the “relative binding free energy” value stood at 0.06 kcal/mol.

CAGTGCACGTGGGATA: the “relative binding free energy” value was -0.01 kcal/mol.

In the case of TAGTGCACGTGATTTA, the “relative binding free energy” value is -0.03 kcal/mol.

Regarding CGGGGCACGTGTTGTT, the “relative binding free energy” value was -0.05 kcal/mol.

Turning to TGAACCACGTGTAGTG, the “relative binding free energy” value amounted to 0.02 kcal/mol.

Turning to GAATTCACGTGAAGTT, the “relative binding free energy” value turned out to be 0.54 kcal/mol.

In the case of TCTTTCACGTGGTCGG, the “relative binding free energy” value is 0.15 kcal/mol.

Regarding GAATTCACGTGTTGTC, the “relative binding free energy” value stood at 0.31 kcal/mol.

With ATGCGCACGTGAAGTG, the “relative binding free energy” value is 0.13 kcal/mol.

TTATACACGTGCTGGG: the “relative binding free energy” value is 0.1 kcal/mol.
